The text below walks through data of PubChem BioAssay AID1508624 (National Center for Advancing Translational Sciences (NCATS), 2021).

SMILES strings stand for the structures. In all, about 48,000 compounds went through this assay and about 120 (0.25%) were called active. About 4% were inconclusive and are not listed. The call rests on the fitted dose curve; in most records, active means well fitted activation curve with a large enough effect; inconclusive means small, poorly fitted or top-dose-only effect, or another doubt; inactive means no such curve, though single readings can be large or run the other way. The list shows a part of the results.

The nature of this assay: Primary qHTS for Identification of Small Molecule Activators of Huntingtin-Antisense Promoter Activity. Further: nearly all actives have a fitted effect of over 55% in size. The following applies: HEK293 HTT-AS promoter firefly luciferase reporter (activity 0% = vehicle and -100% = no light), 24 h; series mostly up to 57.5 µM; activity change, positive = activation: at the top concentration. The method in brief: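 Firefly luciferase readout (Dual-Glo, 10 min RT) after 24 h, 37 °C compound exposure (final up to 57.5 uM) of HEK293 reporter cells cultured 24 h beforehand; PTC124 at 50 uM final as control inhibitor; activity scaled vehicle 0%, zero RLU -100%.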
For the molecule `COc1cccc2c1cc1c(=O)n(CC(=O)N3CCN(c4ccc(F)cc4)CC3)nc(C)n12`, the “activity change, positive = activation” value is inactive: -16%.

As for `COc1ccc2nc(SCC(O)c3cccc(Br)c3)[nH]c2c1` (stereo unspecified), the “activity change, positive = activation” value is inactive: -3.18%.

On to `CCCS(=O)(=O)c1nc(S(=O)(=O)c2ccc(C)cc2)c(NCCCOC(C)C)s1`, for which the “activity change, positive = activation” value was inactive: -20.3%.

As to `Cc1ccc(Sc2ccc(N3CCCC(C(=O)Nc4ccc(F)cc4)C3)nn2)cc1` (stereo unspecified), the “activity change, positive = activation” value is inactive: -30.3%.

For `CCN(CC)C(=O)CSc1nc2cc3c(cc2c(=O)n1CCCC(=O)NCc1ccc2c(c1)OCO2)OCO3`, the “activity change, positive = activation” value is inactive: -20.3%.

For the molecule `COc1ccc(-c2cn3c(n2)sc2cc(C(=O)NCCCc4ccccc4)ccc23)cc1`, the “activity change, positive = activation” value is inactive: 8.17%.

`O=C(Cn1nc(N2CCN(c3ccccc3)CC2)ccc1=O)NCc1ccccc1F`: the “activity change, positive = activation” value is inactive: -10.9%.

Regarding `CCOc1ccc(NC(=O)c2cn(C3CCCCC3)c(=O)c3c2c2ccccc2n3C)cc1`, the “activity change, positive = activation” value is inactive: -6.85%.

For the molecule `Cc1cccc(C(=O)Nc2ccccc2OCc2cc(=O)n3ccccc3n2)c1`, the “activity change, positive = activation” value is inactive: -2.72%.

As to `Cc1ccc(-c2nnc(SCC(=O)NC(C)(C)C)nc2-c2ccc(C)cc2)cc1`, the “activity change, positive = activation” value was inactive: -24.8%.

As for `Cn1c(=O)c2c(nc(NCCc3ccccc3)n2Cc2ccccc2Br)n(C)c1=O`, the “activity change, positive = activation” value is inactive: -5.11%.

Take `CCOc1ccc(C(=O)N(Cc2nc(-c3cccc(C)c3)no2)C(C)C)cc1`: the “activity change, positive = activation” value was inactive: -11.1%.

With `COc1ccc2c(c1)c(CC(=O)Nc1cc(C)cc(C)c1)c(C)n2C(=O)c1ccc(Cl)cc1`, the “activity change, positive = activation” value is inactive: -10.9%.

On to `CCOc1cc(S(=O)(=O)NCCc2c(C)[nH]c3ccc(C)cc23)ccc1F`, for which the “activity change, positive = activation” value was inactive: -18.8%.

On to `O=C(NCc1ccccc1)c1cnc2sc(N3CCCC3)nn2c1=O`, for which the “activity change, positive = activation” value is inactive: -5.7%.

Turning to `CCN(CC)C(=O)c1sc2c(c1C)c(=O)n(Cc1ccccc1)c(=O)n2Cc1cc(C)ccc1C`, the “activity change, positive = activation” value is inactive: -36.8%.

For the molecule `COc1ccc(C)cc1NC(=O)c1sc2nc(-c3ccc(F)cc3)cn2c1C`, the “activity change, positive = activation” value was inactive: 18.9%.

Regarding `O=C1CCCC2=C1C(c1[nH]ncc1Cl)N=C(Nc1nc3ccccc3o1)N2` (stereo unspecified), the “activity change, positive = activation” value is inactive: -5.99%.

In the case of `Cc1cc(C)c2oc(C(=O)Nc3ccc(S(=O)(=O)Nc4ncccn4)cc3)cc(=O)c2c1`, the “activity change, positive = activation” value was inactive: -2.17%.

On to `O=C(CCCn1ncn2c(cc3occc32)c1=O)NCc1ccccc1F`, for which the “activity change, positive = activation” value was inactive: -11.3%.

As for `Cc1cc2c(cc1S(=O)(=O)C(C)CC(=O)NC1CCC(C)CC1)OCC(=O)N2` (stereo unspecified), the “activity change, positive = activation” value was inactive: -4.48%.

As for `O=C(Nc1ccccc1C(F)(F)F)c1cc2nc(-c3ccccc3)cc(-c3ccccc3)n2n1`, the “activity change, positive = activation” value is inactive: -6.49%.

`COc1ccccc1NC(=O)c1sc(-c2ccc(Cl)cc2)cc1N`: the “activity change, positive = activation” value was inactive: 3.73%.

With `CCc1ccc2c(c1)NC(c1ccc(F)cc1)=NC(c1ccncc1)=N2`, the “activity change, positive = activation” value was inactive: 6.33%.

As for `CCc1nnc(SCc2cccc(Cl)c2)c2cc3sccc3n12`, the “activity change, positive = activation” value is inactive: -21.4%.

Take `Cc1cc(C)c(NC(=O)CSc2nc3nccnc3c(=O)n2CCc2c[nH]c3ccccc23)c(C)c1`: the “activity change, positive = activation” value is inactive: -10.1%.
